Literature values in paper PMC9235362 (Journal of medicinal chemistry, 2021).

Test system: Sprague Dawley rats
Conditions: cumulative doses administered 5 min apart, up to 10 mg/kg i.v.; cited from earlier work

## CC[C@@H]1CN2CCc3c([nH]c4cccc(OC)c34)[C@@H]2C[C@@H]1/C(=C\OC)C(=O)OC [mitragynine]
  Antinociception in hotplate assay: did not produce antinociception
